For experiment [1], the target named is T1, ORRM2 fused to the N-terminal half of GFP (Arabidopsis) (UniProt Q9FIU6).
T1 sequence: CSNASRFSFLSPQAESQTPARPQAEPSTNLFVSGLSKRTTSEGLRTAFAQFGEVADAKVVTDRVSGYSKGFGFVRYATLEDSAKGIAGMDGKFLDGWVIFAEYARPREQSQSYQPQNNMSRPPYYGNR
In words: split reporter; BiFC in Nicotiana benthamiana: transient coexpression of one protein fused to GFP^N with another fused to GFP^C by Agrobacterium infiltration; confocal imaging; ORRM5-GFP^C in all panels.

Experiment [2] has as its target T2, RIP1 (RNA-editing factor Interacting Protein 1) fused to the N-terminal half of GFP (Arabidopsis) (UniProt Q9LKA5).
T2 sequence: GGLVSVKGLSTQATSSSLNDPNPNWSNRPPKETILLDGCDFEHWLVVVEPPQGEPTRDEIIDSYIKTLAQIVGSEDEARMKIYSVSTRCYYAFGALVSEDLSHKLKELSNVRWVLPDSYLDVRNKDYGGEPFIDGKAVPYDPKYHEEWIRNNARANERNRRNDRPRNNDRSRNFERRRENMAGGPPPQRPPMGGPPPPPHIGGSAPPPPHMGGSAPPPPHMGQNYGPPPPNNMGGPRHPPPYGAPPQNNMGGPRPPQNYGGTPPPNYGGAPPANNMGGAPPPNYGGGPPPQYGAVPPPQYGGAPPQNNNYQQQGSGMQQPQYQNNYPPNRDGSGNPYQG
The description is as above.

Experiment [3] addresses T3, ORRM4 fused to the N-terminal half of GFP (Arabidopsis) (UniProt Q9C909).
T3 sequence: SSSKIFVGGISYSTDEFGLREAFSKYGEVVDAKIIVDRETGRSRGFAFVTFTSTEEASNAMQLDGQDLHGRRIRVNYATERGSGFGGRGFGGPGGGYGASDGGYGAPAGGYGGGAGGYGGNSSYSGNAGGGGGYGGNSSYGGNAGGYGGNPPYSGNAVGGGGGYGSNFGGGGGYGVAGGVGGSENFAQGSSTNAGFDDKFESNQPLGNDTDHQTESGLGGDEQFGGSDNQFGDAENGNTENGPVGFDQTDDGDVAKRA
The experiment is described as above.

Experiment [4] has as its target organelle RNA recognition motif-containing protein 5 (ORRM5) fused to the C-terminal half of GFP (Arabidopsis) (UniProt Q9SVM8). The experiment is described as above.
The target in experiment [5] is T4, ORRM3 fused to the N-terminal half of GFP (Arabidopsis) (UniProt Q9FNR1).
T4 sequence: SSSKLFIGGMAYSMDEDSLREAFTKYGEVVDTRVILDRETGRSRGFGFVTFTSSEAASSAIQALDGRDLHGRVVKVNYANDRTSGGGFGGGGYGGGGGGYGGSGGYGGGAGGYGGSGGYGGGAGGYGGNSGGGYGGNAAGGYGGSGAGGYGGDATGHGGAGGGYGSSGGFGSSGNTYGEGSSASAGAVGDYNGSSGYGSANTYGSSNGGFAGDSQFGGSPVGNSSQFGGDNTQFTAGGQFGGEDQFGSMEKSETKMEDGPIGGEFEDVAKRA
The description is as above.

The target in experiment [6] is T5, ORRM3, predicted mature coding sequence, fused to the AD or BD domain (Arabidopsis) (UniProt Q9FNR1).
T5 sequence: T4 sequence
As to the kind of experiment: two-hybrid; yeast PJ69-4 a and alpha mated; AD and BD fusions of predicted mature proteins; 10 ul of 1 x 10^6 and 1 x 10^5 cells ml^-1 spotted on leucine-, tryptophan-, adenine- and histidine-dropout plates; read 2 d to 5 d after spotting; empty vectors as controls for auto-activation.

The target of experiment [7] is T6, ORRM4, predicted mature coding sequence, fused to the AD or BD domain (Arabidopsis) (UniProt Q9C909).
T6 sequence: T3 sequence
The experiment is described as above.

The target of experiment [8] is T7, RIP1, predicted mature coding sequence, fused to the AD or BD domain (Arabidopsis) (UniProt Q9LKA5).
T7 sequence: T2 sequence
Described as above.

The target in experiment [9] is ORRM5 with its predicted transit peptide removed, fused to the AD or BD domain (Arabidopsis) (UniProt Q9SVM8). The description is as above.

Results are given in words; binding and its absence hold for the method and conditions named. For part of these data: Binding seen in cells or lysates may run through a third protein. Some results given as binding are weak or reduced against the parent protein; the word gives no strength. Where a sequence is shown, tags or fusion partners need not be part of it.

B1: organelle RNA recognition motif-containing protein 5 (ORRM5) fused to the C-terminal half of GFP (protein, UniProt Q9SVM8 35-158)
chain: TKLFIGGLSWGTDDASLRDAFAHFGDVVDAKVIVDRETGRSRGFGFVNFNDEGAATAAISEMDGKELNGRHIRVNPANDRPSAPRAYGGGGGYSGGGGGYGGGGGGYGGGGGGYGGGGDGGGGF
As to B1, the binding result in [1] is reported as “binds”; in experiment [2], “no binding”; in experiment [3] it was “binds”; in experiment [4], “no binding”; in experiment [5], “binds”.

B2: ORRM5 with its predicted transit peptide removed, fused to the AD or BD domain (protein, UniProt Q9SVM8 33-158)
chain: MSTKLFIGGLSWGTDDASLRDAFAHFGDVVDAKVIVDRETGRSRGFGFVNFNDEGAATAAISEMDGKELNGRHIRVNPANDRPSAPRAYGGGGGYSGGGGGYGGGGGGYGGGGGGYGGGGDGGGGF
For the molecule B2, the binding entry was “binds” in experiment [6], “binds” in [7], “no binding” in experiment [8] and “no binding” in experiment [9].

The record behind these values is paper PMC5853588.
